{"source": "the supplement of paper PMC11417369", "note": "± gives the standard deviation of the averaged measurements. The list shows a part of the results."}
{"test_system": "PfAP2-EXP AP2 domain (GST-tagged)", "assay": "gcPBM binding intensity (ln(normalized median fluorescence intensity)); higher = stronger DNA binding", "how_it_was_run": "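For binding intensity, the highest Masliner-normalised natural-log median intensity across replicate spots of either probe orientation was taken. Protein bound to the array was stained with Alexa488 anti-GST antibody and scanned at 488 nm. The protein, GST-tagged P. falciparum DNA-binding domains from E. coli at about 25 μg on average, had been applied for 1 h to an Agilent 4 × 180k array of primer-extended double-stranded 36-bp intergenic genomic probes and negative controls.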"}
{"sequence": "CATATATAACCTATAGCACACATATATAATATATAT [CACACA_site8544]", "gcPBM binding intensity (ln)": "8.68 ± 0.3"}
{"sequence": "ATTAAATAAAAAAACACACACATATATACATATATA [CACACA_site3445]", "gcPBM binding intensity (ln)": "8.54 ± 0.59"}
{"sequence": "CATAATAATAGAAACACACACACATAGACATATATA [CACACA_site1308]", "gcPBM binding intensity (ln)": "8.79 ± 0.57"}
{"sequence": "TTATATAAACACCAACGTACGTTCATTTAACATAAC [XGTACX_site5250]", "gcPBM binding intensity (ln)": "8.72 ± 0.4"}
{"sequence": "TATATATATATATATTGTACATATGTGGTATAAATG [XGTACX_site6108]", "gcPBM binding intensity (ln)": "9.98 ± 0.5"}
{"sequence": "ATATTACATATGTGCTGTACGCAATATATTATATCT [XGTACX_site1520]", "gcPBM binding intensity (ln)": "8.82 ± 0.36"}
{"sequence": "GCATATCTATTTTCACGTACACAAACATGTATATAT [XGTACX_site3722]", "gcPBM binding intensity (ln)": "9.13 ± 0.42"}
{"sequence": "AAGAACTTTAATAAGTGTACATTTATTGGAAACATG [XGTACX_site2995]", "gcPBM binding intensity (ln)": "8.7 ± 0.43"}
{"sequence": "TATATATATACATAATGTACATTTTATAAATTTACA [XGTACX_site5283]", "gcPBM binding intensity (ln)": "8.97 ± 0.014"}
{"sequence": "ATTTTTTTTTTTATTTTCTTTGAGATTATCTTAATT [CACACA_negctrl_site1209]", "gcPBM binding intensity (ln)": "8.47 ± 0.53"}
{"sequence": "TTAATTTGTTCTTACACACACATATATATATATTTA [CACACA_site1185]", "gcPBM binding intensity (ln)": "8.74 ± 0.38"}
{"sequence": "AATATTATTATTATTACACACACAATTATATTTACC [CACACA_site8061]", "gcPBM binding intensity (ln)": "8.38 ± 0.32"}
{"sequence": "ATATTTTAAATGTTATGTACACATTTGTTGTTTACA [XGTACX_site7353]", "gcPBM binding intensity (ln)": "8.6 ± 0.44"}
{"sequence": "ACTACCTATATTTAAGCATGCAAAAAATAAAAATAT [TGCATGCA_site238]", "gcPBM binding intensity (ln)": "9.8 ± 0.58"}
{"sequence": "ATAAATTGTTCTTTTTGTGTAAACAGAATATTAAAA [CACACA_negctrl_site1022]", "gcPBM binding intensity (ln)": "8.28 ± 0.49"}
{"sequence": "ATACAACATATATATACACACATATAATAATAATAA [CACACA_site3367]", "gcPBM binding intensity (ln)": "8.62 ± 0.42"}
{"sequence": "TAATATAAAGGAAAAGAAAAGAAAAGAATATACAAT [CACACA_negctrl_site1369]", "gcPBM binding intensity (ln)": "8.56 ± 0.54"}
{"sequence": "GAATAAAAAATATATGTGCACATATAAACTTAAAAT [GTGCAC_site9554]", "gcPBM binding intensity (ln)": "8.9 ± 0.3"}
{"sequence": "AAACCAATAAAAAACTGTACAAAAATTATATGAGAT [XGTACX_site1269]", "gcPBM binding intensity (ln)": "8.88 ± 0.38"}
{"sequence": "AAAAAACTTATAATCACACATATGATTAAATATTAA [CACACA_site4956]", "gcPBM binding intensity (ln)": "8.21 ± 0.3"}
{"sequence": "ATAGGACCTATGTGCCCATGGGTACATTAAAAAAAA [CACACA_negctrl_site1465]", "gcPBM binding intensity (ln)": "8.63 ± 0.45"}
{"sequence": "AAATAACACATATATACACACATATAAATATAATAT [CACACA_site2692]", "gcPBM binding intensity (ln)": "8.6 ± 0.3"}
{"sequence": "AAAAAAAAAAAAAAAATACACACGTGAATGTATTGT [CACACA_site1320]", "gcPBM binding intensity (ln)": "8.64 ± 0.3"}
{"sequence": "TTTGTTTTAAATCGAAGTACACATAATTATATTTTA [XGTACX_site1541]", "gcPBM binding intensity (ln)": "8.42 ± 0.23"}
{"sequence": "TTGAATGTAGTTAAATGTACATGTAATATATAAAAA [XGTACX_site1250]", "gcPBM binding intensity (ln)": "8.85 ± 0.33"}
{"sequence": "AATTATTTTTTGTATGAACACACAACTTAATTATGA [CACACA_site8774]", "gcPBM binding intensity (ln)": "8.32 ± 0.38"}
{"sequence": "TTTTTACGTAAACAAAATAATTATATAATATTATTT [CACACA_negctrl_site1769]", "gcPBM binding intensity (ln)": "8.38 ± 0.46"}
{"sequence": "TAAACAAATAAATAAACACACAATATATGTATATAT [CACACA_site3803]", "gcPBM binding intensity (ln)": "8.38 ± 0.38"}
{"sequence": "CGTAAATTTTTTAAAAGTACAAAAAGATACGAGAAA [XGTACX_site8722]", "gcPBM binding intensity (ln)": "8.79 ± 0.59"}
{"sequence": "ATATATTAGGGCAAATTTTCTGACATTACATCAGTC [CACACA_negctrl_site1166]", "gcPBM binding intensity (ln)": "8.34 ± 0.38"}
{"sequence": "TTTTTAATTCAAAAAATAATATATTATATTTCAAAT [CACACA_negctrl_site737]", "gcPBM binding intensity (ln)": "7.99 ± 0.42"}
{"sequence": "ATATTTATATTTGTATGTACTTAAGTTTGTATGTAT [XGTACX_site3608]", "gcPBM binding intensity (ln)": "8.86 ± 0.28"}
{"sequence": "TATTTTTCTTTTTTCTGTACTCACACAAATAGAAGG [XGTACX_site7329]", "gcPBM binding intensity (ln)": "8.62 ± 0.33"}
{"sequence": "TAAAAATGTAGACACACACACATATATATATTTAAT [CACACA_site1528]", "gcPBM binding intensity (ln)": "8.61 ± 0.4"}
{"sequence": "ATATATATAATATAGGTGCACTACTTATTTAAAAAA", "gcPBM binding intensity (ln)": "9.2 ± 0.51"}
{"sequence": "AAATAATTAGCTATTTGTACATATATACATATTTAT [XGTACX_site4652]", "gcPBM binding intensity (ln)": "8.56 ± 0.37"}
{"sequence": "TTAATAACAAAATAAACACACATATATAAATCCACA [CACACA_site1590]", "gcPBM binding intensity (ln)": "8.82 ± 0.26"}
{"sequence": "AAAATGAATATAATGACGCACACTTAAAATTGTTAA [CACACA_site2509]", "gcPBM binding intensity (ln)": "8.31 ± 0.33"}
{"sequence": "TGTGTTAAATGTAATAGTGAATAAATAATTTTAACA [TGCATGCA_negctrl_site161]", "gcPBM binding intensity (ln)": "8.4 ± 0.41"}
{"sequence": "TTTTTTAGAAAAAGTTGTACTTTTTTTTTTTTTTTT [XGTACX_site535]", "gcPBM binding intensity (ln)": "8.41 ± 0.085"}
{"sequence": "TTTTTATTTTTTTTATGTACACAAATGATATACATA [XGTACX_site5910]", "gcPBM binding intensity (ln)": "8.81 ± 0.38"}
{"sequence": "AGGATACACGGACACACACACATATAGATTTATATA [CACACA_site6552]", "gcPBM binding intensity (ln)": "8.59 ± 0.52"}
{"sequence": "TTTCTTTTTTTTTTTTTTTCTGGCTTTTTCTCTTTT [TGCATGCA_negctrl_site599]", "gcPBM binding intensity (ln)": "8.36 ± 0.76"}
{"sequence": "TATATTACTTAAAATACACACCATGGAAAAGTTTTA [CACACA_site5443]", "gcPBM binding intensity (ln)": "8.64 ± 0.44"}
